Reference: PubChem BioAssay AID504333 (National Center for Advancing Translational Sciences (NCATS), 2011)
Out of some 360,000 compounds screened, about 16,000 (4.4%) were called active. This list was built around the results that the source calls inconclusive (neither active nor inactive); the mix of calls is not that of the screen. Calls follow the shape of the dose curve; as a rule, active = well fitted inhibition curve with a large enough effect; inconclusive = small, poorly fitted or top-dose-only effect; inactive = no such curve, though single readings can be large or run the other way. Potencies of inconclusive entries are doubtful fits and often do not repeat.

Biological target: Bromodomain adjacent to zinc finger domain protein 2B (Homo sapiens) (UniProt Q9UIF8)
Chain of UniProt Q9UIF8 (Q9UIF8 whole entry, looked up, the tested form may be a part): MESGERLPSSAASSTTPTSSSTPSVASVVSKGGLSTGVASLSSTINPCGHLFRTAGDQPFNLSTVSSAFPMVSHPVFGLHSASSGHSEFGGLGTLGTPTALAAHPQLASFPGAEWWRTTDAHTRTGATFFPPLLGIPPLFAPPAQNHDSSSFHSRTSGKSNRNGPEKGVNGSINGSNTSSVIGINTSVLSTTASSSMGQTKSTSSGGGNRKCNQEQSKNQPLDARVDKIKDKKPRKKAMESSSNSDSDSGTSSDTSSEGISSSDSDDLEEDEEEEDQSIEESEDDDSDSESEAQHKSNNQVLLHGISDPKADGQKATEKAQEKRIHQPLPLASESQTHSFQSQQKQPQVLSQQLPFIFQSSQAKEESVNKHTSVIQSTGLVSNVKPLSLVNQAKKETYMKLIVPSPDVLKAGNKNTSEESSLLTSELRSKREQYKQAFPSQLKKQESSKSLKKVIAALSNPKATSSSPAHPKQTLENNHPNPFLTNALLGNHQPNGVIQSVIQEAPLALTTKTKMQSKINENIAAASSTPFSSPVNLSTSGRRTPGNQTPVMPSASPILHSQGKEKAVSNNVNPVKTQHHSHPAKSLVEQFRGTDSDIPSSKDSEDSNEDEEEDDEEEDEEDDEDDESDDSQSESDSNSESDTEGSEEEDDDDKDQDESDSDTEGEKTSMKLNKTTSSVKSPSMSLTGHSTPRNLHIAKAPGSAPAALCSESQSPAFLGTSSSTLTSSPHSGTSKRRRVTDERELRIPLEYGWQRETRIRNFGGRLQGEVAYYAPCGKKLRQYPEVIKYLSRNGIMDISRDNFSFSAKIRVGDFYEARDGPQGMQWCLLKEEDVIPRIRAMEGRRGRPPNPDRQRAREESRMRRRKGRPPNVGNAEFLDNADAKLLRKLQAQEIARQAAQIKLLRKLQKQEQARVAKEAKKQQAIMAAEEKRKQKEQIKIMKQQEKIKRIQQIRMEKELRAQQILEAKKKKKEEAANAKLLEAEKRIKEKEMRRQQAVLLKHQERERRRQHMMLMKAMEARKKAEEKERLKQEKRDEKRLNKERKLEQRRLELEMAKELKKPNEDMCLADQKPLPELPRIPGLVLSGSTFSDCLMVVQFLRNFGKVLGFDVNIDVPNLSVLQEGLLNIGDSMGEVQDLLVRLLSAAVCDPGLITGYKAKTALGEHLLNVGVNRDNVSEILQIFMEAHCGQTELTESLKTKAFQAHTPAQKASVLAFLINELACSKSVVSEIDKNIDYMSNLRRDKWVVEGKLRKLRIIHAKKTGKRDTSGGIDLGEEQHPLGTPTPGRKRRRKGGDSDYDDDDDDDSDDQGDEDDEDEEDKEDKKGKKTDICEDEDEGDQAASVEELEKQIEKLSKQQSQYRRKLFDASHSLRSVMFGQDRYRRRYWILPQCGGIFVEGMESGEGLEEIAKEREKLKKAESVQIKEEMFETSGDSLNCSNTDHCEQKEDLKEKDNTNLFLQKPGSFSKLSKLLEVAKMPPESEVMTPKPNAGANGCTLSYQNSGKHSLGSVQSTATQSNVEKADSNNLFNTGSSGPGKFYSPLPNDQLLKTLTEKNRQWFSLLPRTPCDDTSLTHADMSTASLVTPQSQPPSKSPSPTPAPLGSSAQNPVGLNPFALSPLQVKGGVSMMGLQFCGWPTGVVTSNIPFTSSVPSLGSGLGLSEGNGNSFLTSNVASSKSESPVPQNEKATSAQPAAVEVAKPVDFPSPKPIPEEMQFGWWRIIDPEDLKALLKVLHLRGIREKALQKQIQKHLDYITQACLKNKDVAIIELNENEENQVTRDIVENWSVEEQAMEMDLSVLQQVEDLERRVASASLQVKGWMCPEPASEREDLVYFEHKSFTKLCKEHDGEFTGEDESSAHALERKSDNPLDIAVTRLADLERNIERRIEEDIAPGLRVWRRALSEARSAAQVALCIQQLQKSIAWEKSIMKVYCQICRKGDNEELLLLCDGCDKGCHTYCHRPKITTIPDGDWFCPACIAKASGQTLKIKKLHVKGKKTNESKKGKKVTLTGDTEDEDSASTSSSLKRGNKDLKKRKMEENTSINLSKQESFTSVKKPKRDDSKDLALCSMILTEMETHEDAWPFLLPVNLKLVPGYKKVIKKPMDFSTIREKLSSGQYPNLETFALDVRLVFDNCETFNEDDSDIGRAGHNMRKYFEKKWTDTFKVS
Assay: qHTS Assay for Inhibitors of BAZ2B; also: nearly all actives have a fitted effect of over 60% in size
Conditions: AlphaScreen BAZ2B-H3K14Ac peptide displacement; activity change, negative = inhibition: at 114 µM (top of the series) unless noted
Outline: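 Protein-peptide AlphaScreen: BAZ2B 50 nM, b-H3K14Ac 50 nM, 1x PBS pH 7.4 + 0.01% Tween-20. Preincubation 30 min RT; cpd 30 min RT (top 110 uM); beads 20 min RT, light-protected.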
% is scaled to controls: 0 for no effect and ±100 for the full control effect; potency is read from the fitted curve at half-maximal effect; tags tell the direction and shape of the fitted curve.

With `COc1ccc(-n2c(N)c(C(=O)Nc3c(C)n(C)n(-c4ccccc4)c3=O)c3nc4ccccc4nc32)cc1` as the molecule, how does the Potency read?
Its Potency is inconclusive: 89.1 µM [inhibitor, single point].

Which Potency does the source give for `CC(=O)c1ccc(N2CCN(C(=O)C3(S(=O)(=O)c4ccc(Cl)cc4)CC3)CC2)cc1` here?
Its Potency is inconclusive: 89.1 µM [inhibitor, single point].

Which Potency does the source give for `Fc1cccc(Cn2cc(C(=S)N3CCOCC3)c3ccccc32)c1` here?
Its Potency is inconclusive: 44.7 µM [inhibitor, partial curve].

With `O=C(NCc1ccco1)/C(=C/c1ccco1)NC(=O)c1ccc(Br)o1` as the molecule, how does the “activity change, negative = inhibition” value read?
The value was inactive: -8.38%.

With `S=C1SCN(Cc2cccnc2)CN1Cc1cccnc1` as the molecule, how does the “activity change, negative = inhibition” value read?
Its value is inactive: -3.92%.

Which “activity change, negative = inhibition” value does the source give for `Nn1c(SCCOc2ccccc2)nnc1-c1cccnc1` here?
Its value is inactive: -3.12%.

With `CN(C)/C=C1\SC(=S)N(c2ccc(Br)cc2)C1=O` as the molecule, how does the Potency read?
The Potency was active: 39.8 µM.

`N#C/C(=C(/O)CCl)c1nnc2n1CCCCC2` was tested. Which Potency did it give?
Its Potency is active: 79.4 µM.

How did the Potency turn out when `O=C(Nc1ccccc1)c1nnn(Cc2ccccc2)c1NC(=O)C(F)(F)F` was run?
The Potency was inconclusive: 89.1 µM [inhibitor, single point].

With `O=C(Nc1cccc2[nH]ncc12)NS(=O)(=O)c1ccccc1` as the molecule, how does the Potency read?
The Potency was inconclusive: 79.4 µM [inhibitor, single point].

Which Potency does the source give for `Cc1cccc(-n2cc3c(=O)n(C)c(=O)n(C)c3c2)c1` here?
The Potency was inconclusive: 89.1 µM [inhibitor, single point].

`CN(CC(=O)Nc1c(Cl)cccc1Cl)C(=O)CNC(=O)c1ccco1` was tested. Which “activity change, negative = inhibition” value did it give?
The value was inactive: -1.66%.

For `CC1Cc2ccccc2N1C(=O)CSc1nnc(-c2ccccc2)c(-c2ccccc2)n1` (centres undefined), which Potency is on record?
Its Potency is inconclusive: 4.47 µM [inhibitor, full curve, poor fit].

For `Cc1c(Cl)cccc1NC(=O)Cn1cc(C(=O)c2cccs2)c2ccccc21`, which Potency is on record?
The Potency was inconclusive: 89.1 µM [inhibitor, single point].

With `CC(=O)C1=C(O)C(=O)N(Cc2ccco2)C1c1ccc(F)cc1` (centres undefined) as the molecule, how does the “activity change, negative = inhibition” value read?
The value was inactive: -14.6%.

How did the “activity change, negative = inhibition” value turn out when `O=c1c(Cl)c(Cl)cnn1-c1ccccc1` was run?
Its value is inactive: -3.69%.

How did the Potency turn out when `Cc1ccc(-c2nc(CS(=O)CC(=O)N3CCN(c4cccc(Cl)c4)CC3)c(C)o2)cc1` (centres undefined) was run?
The Potency was active: 25.1 µM.

For `Cc1ccc2nc(N(CCCN(C)C)C(=O)c3ccc4c(c3)CCCC4)sc2c1`, which Potency is on record?
Its Potency is inconclusive: 44.7 µM [inhibitor, partial curve].

How did the “activity change, negative = inhibition” value turn out when `CCN(CC)C(=O)CSc1nc2ncc(Br)cc2[nH]1` was run?
The value was inactive: 7.55%.

How did the Potency turn out when `COc1ccc(C(CCN2CCCC2)c2c(O)cc(OC)cc2OC)cc1` (centres undefined) was run?
Its Potency is inconclusive: 79.4 µM [inhibitor, single point].

Which “activity change, negative = inhibition” value does the source give for `Cc1ccc(CNC(=O)C2CCN(S(=O)(=O)c3ccc(F)cc3)CC2)cc1` here?
The value was inactive: -0.585%.

How did the “activity change, negative = inhibition” value turn out when `CC(=O)N1CCc2c(sc3c2c(=O)n(-c2ccc(C)cc2)c(=O)n3Cc2c(F)cccc2Cl)C1` was run?
Its value is inactive: 2.09%.

How did the Potency turn out when `COc1ccccc1CNC(=O)c1cccn1-c1nnc(N2CCCCC2)s1` was run?
Its Potency is inconclusive: 50.1 µM [inhibitor, partial curve, poor fit].

For `COc1ccc(CN2CCc3c(c(=O)n4ncc(C(=O)N5CCN(c6ccc(F)cc6)CC5)c4n3C)C2)cc1`, which Potency is on record?
Its Potency is active: 79.4 µM.

How did the Potency turn out when `CCOc1ccc(C2CC(=O)Nc3cc4c(cc32)OCO4)cc1OC` (centres undefined) was run?
The Potency was inconclusive: 25.1 µM [inhibitor, single point].

`CC(=O)c1cc2c(cc1NC(=O)CN1CCC(Cc3ccccc3)CC1)OCO2` was tested. Which “activity change, negative = inhibition” value did it give?
Its value is inactive: -7.84%.

How did the “activity change, negative = inhibition” value turn out when `Cc1c(Cl)cccc1NC(=O)CC1SCCNC1=O` (centres undefined) was run?
The value was inactive: -3.63%.

`COc1ccc(-c2nnc(Nc3ccc(S(=O)(=O)Nc4nccs4)cc3)c3ccccc23)cc1` was tested. Which Potency did it give?
The Potency was inconclusive: 63.1 µM [inhibitor, partial curve, poor fit].

`O=C(CNS(=O)(=O)c1c(Cl)cccc1Cl)OCC(=O)c1ccc[nH]1` was tested. Which Potency did it give?
Its Potency is active: 79.4 µM.

Which Potency does the source give for `CCc1nn(CC(=O)Nc2ccc(Br)c(C)c2)c(=N)s1` here?
Its Potency is inconclusive: 63.1 µM [inhibitor, partial curve, poor fit].

Which “activity change, negative = inhibition” value does the source give for `O=C1/C(=C/c2cccnc2)SC(=S)N1CC1CCCO1` (centres undefined) here?
Its value is inactive: -35.2%.

For `COc1ccc(-c2nn(-c3ccccc3)cc2/C=N/Nc2ccc(S(N)(=O)=O)cc2[N+](=O)[O-])cc1OC`, which Potency is on record?
The Potency was inconclusive: 56.2 µM [inhibitor, partial curve].

How did the Potency turn out when `Cn1c(-n2cccc2)c(-c2c(-c3ccccc3)[nH]c3c2c(=O)[nH]c(=O)n3C)c(=O)[nH]c1=O` was run?
The Potency was active: 79.4 µM.

For `COC(=O)NCC(c1ccc2c(c1)OCO2)N1CCN(c2ccc(OC)cc2)CC1` (centres undefined), which Potency is on record?
The Potency was inconclusive: 25.1 µM [inhibitor, single point].

`Cc1ccc(C(=O)Nc2nnc(CC(=O)N/N=C/c3ccncc3)s2)cc1` was tested. Which Potency did it give?
Its Potency is inconclusive: 56.2 µM [inhibitor, partial curve].

For `O=C(NCc1ccc(CNC(=O)c2ccco2)cc1)c1ccco1`, which “activity change, negative = inhibition” value is on record?
The value was inactive: -8.73%.

For `CCOc1ccc2nc(NC(=O)CN3CCN(C)CC3)sc2c1`, which Potency is on record?
The Potency was inconclusive: 39.8 µM [inhibitor, partial curve].

`Cc1ccc(/C=N/NC(=O)c2ccccn2)s1` was tested. Which Potency did it give?
The Potency was inconclusive: 100 µM [inhibitor, single point].

How did the Potency turn out when `Cc1c(C(=O)N(C)C)sc2nc(-c3ccccn3)[nH]c(=O)c12` was run?
The Potency was active: 10 µM.

With `CCCOc1cccc(C2/C(=C(/O)c3ccccc3)C(=O)C(=O)N2CCN(C)C)c1` (centres undefined) as the molecule, how does the Potency read?
The Potency was inconclusive: 89.1 µM [inhibitor, single point].

`O=C(Nc1nnc2n1CCS2)c1ccco1` was tested. Which Potency did it give?
Its Potency is active: 12.6 µM.

Which “activity change, negative = inhibition” value does the source give for `O=C1NCC2=C1C(c1ccc(Br)cc1)Nc1ccccc1N2` (centres undefined) here?
The value was inactive: -2.54%.

Which Potency does the source give for `CCOC(=O)C1(CCOC)CCN(Cc2cc3ccccc3s2)CC1` here?
Its Potency is inconclusive: 3.98 µM [inhibitor, single point].

How did the Potency turn out when `CCOc1cc(C(=O)OCC(=O)NCc2ccco2)cc(OCC)c1OCC` was run?
Its Potency is active: 28.2 µM.

How did the Potency turn out when `C#CCN(C)CC/C=C1\c2ccccc2CSc2ccccc21` was run?
The Potency was inconclusive: 44.7 µM [inhibitor, partial curve].

With `C(=N\Nc1ccccn1)/c1c[nH]c2ccccc12` as the molecule, how does the Potency read?
The Potency was active: 31.6 µM.

With `O=S(=O)(c1ccc(Cl)cc1)c1nc(-c2ccccc2F)oc1NCCN1CCOCC1` as the molecule, how does the Potency read?
The Potency was inconclusive: 79.4 µM [inhibitor, partial curve].

Which Potency does the source give for `CCOc1ccc(CN2CCN(Cc3cc4ccccc4[nH]3)CC2CCO)cc1` (centres undefined) here?
The Potency was inconclusive: 89.1 µM [inhibitor, single point].

How did the Potency turn out when `NC(=O)c1cc(NC(=O)c2cc(Br)c(Br)s2)cc(C(N)=O)c1` was run?
The Potency was inconclusive: 89.1 µM [inhibitor, single point].

For `O=C(NCc1ccccc1)C(=O)Nc1ccc2nc3n(c(=O)c2c1)CCCCC3`, which “activity change, negative = inhibition” value is on record?
The value was inactive: 2.97%.

With `Cc1ccc(C(OCC(O)CNC(CO)C(O)c2ccc([N+](=O)[O-])cc2)c2ccccc2)cc1` (centres undefined) as the molecule, how does the Potency read?
Its Potency is active: 50.1 µM.

Which “activity change, negative = inhibition” value does the source give for `O=C(COC(=O)c1ccc(Cl)nc1)Nc1ccc(S(=O)(=O)N2CCCC2)cc1` here?
The value was inactive: 9.45%.

With `CCCN(C(=O)c1ccco1)c1nnc(-c2ccccc2C)s1` as the molecule, how does the Potency read?
Its Potency is inconclusive: 56.2 µM [inhibitor, partial curve].

For `O=C(CN1C(=O)COc2ccc(S(=O)(=O)N3CCOCC3)cc21)N1CCN(c2ccc(F)cc2)CC1`, which “activity change, negative = inhibition” value is on record?
Its value is inactive: -11.4%.

Which Potency does the source give for `COc1ccc(C2C(C(C)=O)=C(O)C(=O)N2c2ccc(Br)cc2)cc1` (centres undefined) here?
Its Potency is inconclusive: 89.1 µM [inhibitor, single point].

Which Potency does the source give for `COc1ccc(-c2cc(C(=O)N3CCN(c4ccccc4OC)CC3)no2)cc1OC` here?
Its Potency is active: 79.4 µM.

How did the Potency turn out when `COc1cc(OC)c(OC)cc1/C=N/N(C)c1ccccc1` was run?
The Potency was active: 31.6 µM.

For `COc1ccc(OC)c2c1C(=O)C(Cl)=C(Cl)C2=O`, which Potency is on record?
The Potency was active: 44.7 µM.

How did the “activity change, negative = inhibition” value turn out when `COc1cccc(N2CC(NC(=O)c3ccc(S(=O)(=O)N4CCCCC4)cc3)CC2=O)c1` (centres undefined) was run?
The value was inactive: 2.95%.

How did the “activity change, negative = inhibition” value turn out when `CCOC(=O)c1cc2c(=O)n3ccccc3nc2n(CC2CCCO2)c1=NC(=O)c1ccc(C)cc1` (centres undefined) was run?
Its value is inactive: -1.09%.

How did the Potency turn out when `O=[N+]([O-])c1ccc(C(c2sc3nc(-c4ccco4)nn3c2O)N2CCN(c3cccc(Cl)c3)CC2)cc1` (centres undefined) was run?
The Potency was inconclusive: 14.1 µM [inhibitor, full curve].

For `Cc1ccc(CNC(=O)CSc2nnc3c(n2)[nH]c2ccc(F)cc23)cc1`, which Potency is on record?
Its Potency is inconclusive: 79.4 µM [inhibitor, single point].

Which “activity change, negative = inhibition” value does the source give for `CCN=C1SC(CC(=O)Nc2ccccc2OCC)C(=O)N1CC` (centres undefined) here?
Its value is inactive: 1.29%.

Which Potency does the source give for `CCCCn1c(=N)n(CC(=O)O)c2ccccc21` here?
The Potency was inconclusive: 89.1 µM [inhibitor, single point].

For `COc1ccc(C2CC(c3ccc4ccccc4c3)=NN2C(=O)CN2CCC(C(N)=O)CC2)cc1` (centres undefined), which “activity change, negative = inhibition” value is on record?
Its value is inactive: -27.1%.

For `CCOC(=O)c1c(S(=O)(=O)N2CCCC(C(=O)N3CCN(c4ccccc4)CC3)C2)c(C)n(C)c1C` (centres undefined), which “activity change, negative = inhibition” value is on record?
The value was inactive: -29.7%.

Which “activity change, negative = inhibition” value does the source give for `COc1cccc(CNC(=O)N2CCN(c3ccccc3)CC2)c1` here?
The value was inactive: 2.81%.

With `CN(Cc1ccccc1)C(=O)c1ncn(C)c1C(=O)N(C)Cc1ccccc1` as the molecule, how does the Potency read?
The Potency was inconclusive: 89.1 µM [inhibitor, single point].

`CN(Cc1ccccc1)c1ccc(C(CC(N)=O)NC(=O)c2ccccc2)cc1[N+](=O)[O-]` (centres undefined) was tested. Which Potency did it give?
The Potency was inconclusive: 35.5 µM [inhibitor, full curve].

For `O=[N+]([O-])c1cc([N+](=O)[O-])c(Oc2c(F)cc(F)cc2F)cc1NN1CCCCC1`, which Potency is on record?
Its Potency is inconclusive: 22.4 µM [inhibitor, full curve].

Which “activity change, negative = inhibition” value does the source give for `CC(NC(=O)CNC(=O)c1ccccc1F)c1ccc(-n2ccnc2)cc1` (centres undefined) here?
The value was inactive: 4.87%.

`COc1cccc(CNCCSc2nnnn2C)c1OCc1ccccc1F` was tested. Which Potency did it give?
Its Potency is inconclusive: 89.1 µM [inhibitor, single point].

For `CC(=O)N1CCN(c2ccc(N)cc2)CC1`, which Potency is on record?
Its Potency is inconclusive: 89.1 µM [inhibitor, single point].

`COc1ccc2[nH]cc(CCNC(=O)Cc3c(F)cccc3Cl)c2c1` was tested. Which Potency did it give?
The Potency was inconclusive: 50.1 µM [inhibitor, partial curve].
